This is an account of results in the supplement of paper PMC4604168 (melanoma cell lines).

Test systems include G361; IPC-298; IST-MEL1; LB2518-MEL; LOXIMVI; MEL-HO; MZ2-MEL; MeWo; RPMI7951; RVH-421; SkMel28; SkMel2; SkMel30; SkMel5; UACC257; UACC62; WM115; WM1716; WM1745; WM3526.
Assay in all cases: cell count relative to DMSO control; melanoma cells; higher = more viable cells
Holding throughout (settings): library dose: standard library concentration; 72 h

This is one part of the list. Most values come without repeats; read them as rough.
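Note: cells treated in 1,536-well plates, then fixed and DAPI-stained, with nuclei counted from automated high-throughput microscope images.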

For the compound `Cn1cc(C2=C(c3cn(C4CCN(Cc5ccccn5)CC4)c4ccccc34)C(=O)NC2=O)c2ccccc21` [Enzastaurin] + O=C(Nc1cccc(Cl)c1)Nc1ncc(CCNc2ncnc3ccsc23)s1 [SNS314] (first compound 4 µM, partner dose 0.004 µM), the cell count in the assay on G361 amounted to 40.9%; in the assay on IPC-298, 51.1%; in the assay on IST-MEL1, 41.8%; with LB2518-MEL, 60%; in the assay on LOXIMVI, 81.5%; with MEL-HO, 68%. The cell count came to 88% with MZ2-MEL; 73.3% in the assay with MeWo; 32.7% in the assay on RPMI7951; 32.8% in the assay on RVH-421; 34.3% in the assay on SkMel28; 68.5% in the assay on SkMel2. Besides, the cell count in the assay on SkMel30 came out at 85.2%; with SkMel5 it was 65%; in the assay on UACC257 it was 76.1%; in the assay with UACC62, 92%; in the assay with WM115 it was 46.6%; with WM1716 it was 61%. Moreover, the results for the cell count in the assay with WM1745 and in the assay on WM3526 were 68.6% and 53.5%, respectively.

For `C[As](C)SC[C@H](NC(=O)CC[C@H](N)C(=O)O)C(=O)NCC(=O)O` [Darinaparsin] + O=C(Nc1cccc(Cl)c1)Nc1ncc(CCNc2ncnc3ccsc23)s1 [SNS314] (first compound 2 µM, partner dose 0.004 µM), the cell count with G361 came out at 64.8%; in the assay with IPC-298, 92.3%; with IST-MEL1, 48.5%; in the assay on LB2518-MEL, 60.6%; in the assay with LOXIMVI it was 83.5%; with MEL-HO, 80.8%. The cell count with MZ2-MEL was determined as 86.5%; with MeWo it was 59.6%; with RPMI7951, 73.3%; in the assay on RVH-421, 75.9%; with SkMel28 it was 46.1%; in the assay with SkMel2, 59.5%. Also, the cell count with SkMel30 was 90.6%; with SkMel5, 58.1%; with UACC257 it was 59.4%; with UACC62, 88.3%; in the assay with WM115, 42.1%; in the assay on WM1716, 48.7%. Also, the cell count in the assay on WM1745 came to 76.9%; with WM3526, 58.8%.

Take `Cn1cc(C2=C(c3cn(C4CCN(Cc5ccccn5)CC4)c4ccccc34)C(=O)NC2=O)c2ccccc21` [Enzastaurin] + C=C(c1ccc(C(=O)O)cc1)c1cc2c(cc1C)C(C)(C)CCC2(C)C [Bexarotene] (first compound 4 µM, partner dose 10 µM): the cell count with G361 is 62.6%; in the assay on IPC-298, 70.9%; in the assay on IST-MEL1, 75%; in the assay with LB2518-MEL it was 92%; in the assay on LOXIMVI, 69.8%; in the assay with MEL-HO, 75.3%. Moreover, the cell count with MZ2-MEL was 96.6%; in the assay on MeWo, 68.8%; with RPMI7951 it was 70.6%; in the assay on RVH-421, 55.3%; in the assay on SkMel28 it was 89.6%; in the assay with SkMel2, 63.1%. Moreover, the cell count with SkMel30 worked out at 90.6%; in the assay on SkMel5, 94.5%; in the assay with UACC257 it was 101%; in the assay with UACC62, 87.4%; in the assay with WM115, 99%; in the assay with WM1716 it was 61.6%. The cell count with WM1745 is 57.4%; in the assay with WM3526 it was 71%.

For the compound `C[C@]12O[C@H](C[C@]1(O)CO)n1c3ccccc3c3c4c(c5c6ccccc6n2c5c31)CNC4=O` [Lestaurtinib] + Nc1ncn([C@H]2C[C@H](O)[C@@H](CO)O2)c(=O)n1 [decitabine] (first compound 0.02 µM, partner dose 0.5 µM), the cell count was found to be 77.9% in the assay on G361; 49.7% with IPC-298; 81.4% in the assay with IST-MEL1; 50.5% in the assay on LB2518-MEL; 79.5% in the assay on LOXIMVI; 72.5% in the assay on MEL-HO. Moreover, the cell count with MZ2-MEL came out at 75.4%; in the assay on MeWo, 55.3%; with RPMI7951 it was 79.7%; in the assay with RVH-421 it was 74.2%; with SkMel28 it was 52.9%; in the assay with SkMel2, 92%. The cell count in the assay on SkMel30 stood at 80.5%; with SkMel5, 53.8%; in the assay with UACC257, 102%; in the assay with UACC62, 60.6%; in the assay with WM115, 70.9%; with WM1716, 73%. In addition, the cell count with WM1745 amounted to 74.5%; with WM3526, 76.5%.

As for `N.N.[Cl][Pt][Cl]` [cisplatin] + OCc1c[nH]c2ccccc12 [Indole-3-carbinol] (first compound 8 µM, partner dose 4 µM), the cell count was found to be 103% with G361; 72.2% in the assay on IPC-298; 92% with IST-MEL1; 77.8% in the assay on LB2518-MEL; 98.1% with LOXIMVI; 92.4% in the assay on MEL-HO. Further, the cell count in the assay with MZ2-MEL was found to be 87%; in the assay on MeWo, 85.6%; with RPMI7951 it was 105%; in the assay on RVH-421, 88.4%; with SkMel28, 60.7%; in the assay on SkMel2 it was 77.1%. Besides, the cell count in the assay on SkMel30 turned out to be 96%; in the assay with SkMel5 it was 83.6%; with UACC257, 90.1%; in the assay with UACC62, 94.9%; in the assay with WM115 it was 112%; with WM1716 it was 96.2%. Also, the cell count with WM1745 amounted to 104%; with WM3526 it was 82%.
